In the supplement of paper PMC8728848:
Some of the results follow.

Columns and labels:
Experiment in all cases: glycan array binding signal (z-score within array); higher = stronger binding
Details in all cases: glycan notation: IUPAC condensed, linker removed
[1] = target: Neu5Ac(a2-3)GalNAc(b1-4)GlcNAc
Procedure, shortened: (§1)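 From the Consortium for Functional Glycomics database, 3228 arrays were curated, keeping only those whose protein sequence was available. Binding is given as a within-array Z-score averaged across arrays sharing a protein sequence and across linkers. Negative Z-scores can be read as non-binding.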

[2] = target: Neu5Ac(a2-3)[GalNAc(b1-4)]Gal(b1-4)Glc
Procedure, shortened: as §1

[3] = target: Neu5Ac(a2-3)[GalNAc(b1-4)]Gal(b1-4)GlcNAc
Procedure, shortened: as §1

[4] = target: Neu5Ac(a2-3)[GalNAc(b1-4)]Gal(b1-4)GlcNAc(b1-3)GalNAc
Procedure, shortened: as §1

[5] = target: Neu5Ac(a2-3)[Neu5Ac(a2-6)]GalNAc
Procedure, shortened: as §1

[6] = target: Neu5Ac(a2-6)Gal
Procedure, shortened: as §1

[7] = target: Neu5Ac(a2-6)Gal(b1-3)GlcNAc(b1-3)[Gal(b1-4)GlcNAc(b1-6)]Gal(b1-4)Glc
Procedure, shortened: as §1

[8] = target: Neu5Ac(a2-6)Gal(b1-4)Glc
Procedure, shortened: as §1

[9] = target: Neu5Ac(a2-6)Gal(b1-4)GlcNAc
Procedure, shortened: as §1

[10] = target: Neu5Ac(a2-6)Gal(b1-4)GlcNAc(b1-2)Man
Procedure, shortened: as §1

[11] = target: Neu5Ac(a2-6)Gal(b1-4)GlcNAc(b1-2)Man(a1-3)Man(b1-4)GlcNAc(b1-4)GlcNAc
Procedure, shortened: as §1

[12] = target: Neu5Ac(a2-6)Gal(b1-4)GlcNAc(b1-2)Man(a1-3)[Gal(b1-4)GlcNAc(b1-2)Man(a1-6)]Man(b1-4)GlcNAc(b1-4)GlcNAc
Procedure, shortened: as §1

[13] = target: Neu5Ac(a2-6)Gal(b1-4)GlcNAc(b1-2)Man(a1-3)[GlcNAc(b1-2)Man(a1-6)]Man(b1-4)GlcNAc(b1-4)GlcNAc
Procedure, shortened: as §1

[14] = target: Neu5Ac(a2-6)Gal(b1-4)GlcNAc(b1-2)Man(a1-3)[GlcNAc(b1-4)][Neu5Ac(a2-6)Gal(b1-4)GlcNAc(b1-2)Man(a1-6)]Man(b1-4)GlcNAc(b1-4)GlcNAc
Procedure, shortened: as §1

[15] = target: Neu5Ac(a2-6)Gal(b1-4)GlcNAc(b1-2)Man(a1-3)[Man(a1-6)]Man(b1-4)GlcNAc(b1-4)GlcNAc
Procedure, shortened: as §1

[16] = target: Neu5Ac(a2-6)Gal(b1-4)GlcNAc(b1-2)Man(a1-3)[Neu5Ac(a2-3)Gal(b1-4)GlcNAc(b1-2)Man(a1-6)]Man(b1-4)GlcNAc(b1-4)GlcNAc
Procedure, shortened: as §1

[17] = target: Neu5Ac(a2-6)Gal(b1-4)GlcNAc(b1-2)Man(a1-3)[Neu5Ac(a2-6)Gal(b1-4)GlcNAc(b1-2)Man(a1-6)]Man(b1-4)GlcNAc(b1-4)GlcNAc
Procedure, shortened: as §1

[18] = target: Neu5Ac(a2-6)Gal(b1-4)GlcNAc(b1-2)Man(a1-3)[Neu5Ac(a2-6)Gal(b1-4)GlcNAc(b1-2)Man(a1-6)]Man(b1-4)GlcNAc(b1-4)[Fuc(a1-6)]GlcNAc
Procedure, shortened: as §1

[19] = target: Neu5Ac(a2-6)Gal(b1-4)GlcNAc(b1-2)Man(a1-6)Man(b1-4)GlcNAc(b1-4)GlcNAc
Procedure, shortened: as §1

[20] = target: Neu5Ac(a2-6)Gal(b1-4)GlcNAc(b1-2)Man(a1-6)[Gal(b1-4)GlcNAc(b1-2)Man(a1-3)]Man(b1-4)GlcNAc(b1-4)GlcNAc
Procedure, shortened: as §1

[21] = target: Neu5Ac(a2-6)Gal(b1-4)GlcNAc(b1-2)Man(a1-6)[GlcNAc(b1-2)Man(a1-3)]Man(b1-4)GlcNAc(b1-4)GlcNAc
Procedure, shortened: as §1

[22] = target: Neu5Ac(a2-6)Gal(b1-4)GlcNAc(b1-2)Man(a1-6)[Man(a1-3)]Man(b1-4)GlcNAc(b1-4)GlcNAc
Procedure, shortened: as §1

[23] = target: Neu5Ac(a2-6)Gal(b1-4)GlcNAc(b1-2)[Neu5Ac(a2-6)Gal(b1-4)GlcNAc(b1-4)]Man(a1-3)[GlcNAc(b1-4)][Neu5Ac(a2-6)Gal(b1-4)GlcNAc(b1-2)[Neu5Ac(a2-6)Gal(b1-4)GlcNAc(b1-6)]Man(a1-6)]Man(b1-4)GlcNAc(b1-4)GlcNAc
Procedure, shortened: as §1

[24] = target: Neu5Ac(a2-6)Gal(b1-4)GlcNAc(b1-2)[Neu5Ac(a2-6)Gal(b1-4)GlcNAc(b1-4)]Man(a1-3)[GlcNAc(b1-4)][Neu5Ac(a2-6)Gal(b1-4)GlcNAc(b1-4)Man(a1-6)]Man(b1-4)GlcNAc(b1-4)GlcNAc
Procedure, shortened: as §1

[25] = target: Neu5Ac(a2-6)Gal(b1-4)GlcNAc(b1-2)[Neu5Ac(a2-6)Gal(b1-4)GlcNAc(b1-6)]Man(a1-6)[Neu5Ac(a2-6)Gal(b1-4)GlcNAc(b1-2)Man(a1-3)][GlcNAc(b1-4)]Man(b1-4)GlcNAc(b1-4)GlcNAc
Procedure, shortened: as §1

[26] = target: Neu5Ac(a2-6)Gal(b1-4)GlcNAc(b1-3)Gal(b1-3)GlcNAc
Procedure, shortened: as §1

[27] = target: Neu5Ac(a2-6)Gal(b1-4)GlcNAc(b1-3)Gal(b1-4)GlcNAc
Procedure, shortened: as §1

[28] = target: Neu5Ac(a2-6)Gal(b1-4)GlcNAc(b1-3)Gal(b1-4)GlcNAc(b1-2)Man(a1-3)[Neu5Ac(a2-6)Gal(b1-4)GlcNAc(b1-3)Gal(b1-4)GlcNAc(b1-2)Man(a1-6)]GalNAc
Procedure, shortened: as §1

[29] = target: Neu5Ac(a2-6)Gal(b1-4)GlcNAc(b1-3)Gal(b1-4)GlcNAc(b1-3)Gal(b1-4)GlcNAc
Procedure, shortened: as §1

[30] = target: Neu5Ac(a2-6)Gal(b1-4)GlcNAc(b1-3)Gal(b1-4)GlcNAc(b1-3)Gal(b1-4)GlcNAc(b1-2)Man(a1-3)[Neu5Ac(a2-6)Gal(b1-4)GlcNAc(b1-3)Gal(b1-4)GlcNAc(b1-3)Gal(b1-4)GlcNAc(b1-2)Man(a1-6)]GalNAc
Procedure, shortened: as §1

[31] = target: Neu5Ac(a2-6)Gal(b1-4)GlcNAc(b1-3)Gal(b1-4)GlcNAc(b1-3)GalNAc
Procedure, shortened: as §1

[32] = target: Neu5Ac(a2-6)Gal(b1-4)GlcNAc(b1-3)Gal(b1-4)GlcNAc(b1-3)[Neu5Ac(a2-6)Gal(b1-4)GlcNAc(b1-3)Gal(b1-4)GlcNAc(b1-6)]GalNAc
Procedure, shortened: as §1

[33] = target: Neu5Ac(a2-6)Gal(b1-4)GlcNAc(b1-3)Gal(b1-4)GlcNAc(b1-6)[Gal(b1-3)]GalNAc
Procedure, shortened: as §1

[34] = target: Neu5Ac(a2-6)Gal(b1-4)GlcNAc(b1-3)Gal(b1-4)[Fuc(a1-3)]GlcNAc(b1-3)Gal(b1-4)[Fuc(a1-3)]GlcNAc
Procedure, shortened: as §1

[35] = target: Neu5Ac(a2-6)Gal(b1-4)GlcNAc(b1-3)GalNAc
Procedure, shortened: as §1

[36] = target: Neu5Ac(a2-6)Gal(b1-4)GlcNAc(b1-3)[Neu5Ac(a2-6)Gal(b1-4)GlcNAc(b1-6)]GalNAc
Procedure, shortened: as §1

[37] = target: Neu5Ac(a2-6)Gal(b1-4)GlcNAc(b1-6)GalNAc
Procedure, shortened: as §1

[38] = target: Neu5Ac(a2-6)Gal(b1-4)GlcNAc(b1-6)[Gal(b1-3)GlcNAc(b1-3)]Gal(b1-4)Glc
Procedure, shortened: as §1

B1: FimD (Bordetella pertussis) (protein)
chain: MPARVISFCGAALAVWAGLAVQPAMAVDPPVDCGRALGLHFWSSASLISDQTPDGTLIGKPVVGRSLLSKSCKVPDDIKEDLSDNHDGEPVDIVLELGSNYKIRPQSYGHPGIVVDLPFGSTEETGIAIYIDFGSSPMQKVGERQWLYPQKGEVLFDVLTINGDNAEVRYQAIKVGPLKRPRKLVLSQFPNLFTYKWVFMRGTSQERVLAQGTIDTDVATSTIDLKTCRYTSQTVSLPIIQRSALTGVGTTLGMTDFQMPFWCYGWPKVSVYMSATKTQTGVDGVALPATGQAAGMASGVGVQLINGKTQQPVKLGLQGKIALPEAQQTESATFSLPMKAQYYQTSTSTSAGKLSVTYAVTLNYD
glycan array binding signal (z-score) [1]: -0.354 | glycan array binding signal (z-score) [2]: -0.52 | glycan array binding signal (z-score) [3]: -0.037 | glycan array binding signal (z-score) [4]: 0.943 | glycan array binding signal (z-score) [5]: -0.154 | glycan array binding signal (z-score) [6]: 0.576 | glycan array binding signal (z-score) [7]: -0.473 | glycan array binding signal (z-score) [8]: 0.442 | glycan array binding signal (z-score) [9]: -0.256 | glycan array binding signal (z-score) [10]: -0.173 | glycan array binding signal (z-score) [11]: -0.443 | glycan array binding signal (z-score) [12]: -0.483 | glycan array binding signal (z-score) [13]: -0.36 | glycan array binding signal (z-score) [14]: -0.424 | glycan array binding signal (z-score) [15]: -0.383 | glycan array binding signal (z-score) [16]: -0.023 | glycan array binding signal (z-score) [17]: 0.115 | glycan array binding signal (z-score) [18]: -0.073 | glycan array binding signal (z-score) [19]: -0.14 | glycan array binding signal (z-score) [20]: -0.133 | glycan array binding signal (z-score) [21]: -0.065 | glycan array binding signal (z-score) [22]: -0.519 | glycan array binding signal (z-score) [23]: 0.238 | glycan array binding signal (z-score) [24]: 0.042 | glycan array binding signal (z-score) [25]: -0.206 | glycan array binding signal (z-score) [26]: -0.347 | glycan array binding signal (z-score) [27]: -0.153 | glycan array binding signal (z-score) [28]: 0.531 | glycan array binding signal (z-score) [29]: -0.146 | glycan array binding signal (z-score) [30]: 1.34 | glycan array binding signal (z-score) [31]: -0.147 | glycan array binding signal (z-score) [32]: 0.035 | glycan array binding signal (z-score) [33]: -0.085 | glycan array binding signal (z-score) [34]: -0.201 | glycan array binding signal (z-score) [35]: 0.128 | glycan array binding signal (z-score) [36]: -0.204 | glycan array binding signal (z-score) [37]: -0.143 | glycan array binding signal (z-score) [38]: -0.097
